# The campaign covered roughly 310,000 compounds. About 14,000 (4.5%) showed an effect of 50% or more. Effects have a minus sign here. The list shows a part of the results.
# Target: human ether-à-go-go-related gene (hERG) potassium channel (human, UniProt Q12809)
# Assay: primary screen, population patch clamp on CHO cells stably expressing hERG
# 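Also: peak tail current of the secondary pulse compared with the same well before compound.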
# Sequence of human ether-à-go-go-related gene (hERG) potassium channel (Q12809 whole entry, looked up): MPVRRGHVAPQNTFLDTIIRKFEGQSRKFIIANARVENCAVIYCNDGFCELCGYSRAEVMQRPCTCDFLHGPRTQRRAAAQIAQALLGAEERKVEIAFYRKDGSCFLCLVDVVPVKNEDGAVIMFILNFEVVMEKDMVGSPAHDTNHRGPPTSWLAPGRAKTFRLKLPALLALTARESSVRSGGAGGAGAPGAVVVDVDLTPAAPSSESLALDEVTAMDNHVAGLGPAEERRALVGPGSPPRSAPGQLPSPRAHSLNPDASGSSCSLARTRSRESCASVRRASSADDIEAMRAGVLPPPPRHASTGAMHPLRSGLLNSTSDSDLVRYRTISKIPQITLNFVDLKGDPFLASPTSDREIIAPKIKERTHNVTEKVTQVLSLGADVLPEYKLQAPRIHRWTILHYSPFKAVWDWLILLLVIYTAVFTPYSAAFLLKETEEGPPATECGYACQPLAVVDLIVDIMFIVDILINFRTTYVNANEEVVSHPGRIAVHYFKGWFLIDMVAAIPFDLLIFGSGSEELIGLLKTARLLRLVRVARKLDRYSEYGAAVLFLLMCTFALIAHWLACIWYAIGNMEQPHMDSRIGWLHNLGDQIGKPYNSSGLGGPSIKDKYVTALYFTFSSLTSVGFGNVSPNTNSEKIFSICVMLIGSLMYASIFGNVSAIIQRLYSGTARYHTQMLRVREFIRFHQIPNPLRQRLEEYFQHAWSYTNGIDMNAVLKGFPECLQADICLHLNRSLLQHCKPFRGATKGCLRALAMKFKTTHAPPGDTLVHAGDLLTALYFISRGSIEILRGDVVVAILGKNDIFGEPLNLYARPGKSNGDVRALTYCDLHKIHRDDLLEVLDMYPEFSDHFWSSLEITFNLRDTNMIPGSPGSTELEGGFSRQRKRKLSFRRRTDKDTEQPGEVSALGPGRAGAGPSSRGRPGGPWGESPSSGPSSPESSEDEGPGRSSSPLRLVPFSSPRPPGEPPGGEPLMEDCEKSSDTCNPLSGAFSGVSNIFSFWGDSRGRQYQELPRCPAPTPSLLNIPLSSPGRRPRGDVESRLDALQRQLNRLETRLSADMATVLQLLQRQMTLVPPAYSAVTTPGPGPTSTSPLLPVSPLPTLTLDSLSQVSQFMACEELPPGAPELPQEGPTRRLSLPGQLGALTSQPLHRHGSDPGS
row,SMILES,"hERG current change (%, negative = inhibition) at 10uM [%]"
1,COc1cc(C)c(NC(=S)NCCCN2CCOCC2)cc1OC,-5.88
2,Cc1ccc(C(=O)N2CCN(S(=O)(=O)c3cc(Br)ccc3Br)CC2)o1,-23.9
3,O=C(O)CCC(=O)N1CCN(S(=O)(=O)c2cccs2)CC1,18
4,COc1cccc(Cn2c(=O)c3[nH]cnc3n(-c3ccccc3C)c2=O)c1,-1.8
5,Cc1cc(C)c(NC(=O)COC(=O)CCc2ccc(S(=O)(=O)N3CCCCC3)cc2)c(C)c1,11.5
6,C=CCN1C=CC=C/C1=C1\SC(=S)N(C)C1=O,11.5
7,COc1ccc(CC(=O)Nc2sc3c(c2C#N)CC(C)(C)NC3(C)C)cc1OC,-3.63
8,Cc1c(Cc2ccccc2)c(=O)oc2cc(OCC(=O)c3ccccc3)ccc12,5.32
9,COC(=O)C1=C(N)Oc2cc(C)n(Cc3cccnc3)c(=O)c2C1c1ccc(OC)c(OC)c1 (stereo not shown),-19
10,O=C(CC1SC(=O)NC1=O)Oc1ccc(/C=N/NC(=O)c2ccccc2O)cc1 (stereo not shown),-3.93
11,O=C(C[n+]1ccccc1)N/N=C/c1ccc(Cl)c(Cl)c1.[Cl-],4.71
12,CCn1cc(C(=O)N[C@@H](CC(C)C)C(=O)NCCCn2ccnc2)c(=O)c2cc3c(cc21)OCO3,11.4
13,CCC(CC)C(=O)c1c[nH]c(C(=O)NCc2ccccc2)c1,0.153
14,O=c1c(-c2nn[nH]n2)coc2ccc(Cl)cc12,16.4
15,CCOc1ccc(CC(=O)NCc2cn3c(C)csc3n2)cc1,8.42
16,O=C(COC(=O)c1ccc(OC(F)F)cc1)NCCCN1CCCC1=O,-46.5
17,CCn1c(SCC(=O)N2CCCC(C)C2)nnc1-c1ccco1 (stereo not shown),17
18,Fc1ccc(CNc2ncccn2)cc1,7.85
19,CN(CC(=O)Nc1ccccc1Cl)C1CCCCC1,-18.7
20,CCOc1ccc(NC(=O)CCC(=O)Nc2nnc(CC)s2)cc1,13.9
21,N#Cc1nc(COc2ccc(F)cc2)oc1N1CCC(Cc2ccccc2)CC1,0.354
22,Cc1ccc2nc(Cl)c(C3CC(c4ccco4)=NN3S(C)(=O)=O)cc2c1 (stereo not shown),-62.6
23,Cc1ccccc1-c1nnn(Cc2cccc(S(=O)(=O)N3CCOCC3)c2)n1,-7.43
24,O=C(COc1ccc2c(c1)OCO2)Nc1nncs1,10.6
25,C=CCc1ccccc1OCC(O)CN1CCN(Cc2ccc3c(c2)OCO3)CC1 (stereo not shown),-91
